# Experimental data: the supplement of paper PMC10126150
# Values marked as one replicate rest on one cluster of the flow cell; about a third of the high ones do not repeat.
# Tested on: ATP
# Experiment: switch fluorescence ratio, 500 uM ATP over buffer (Cy3 cluster intensity, sum of 5 cycles each) (fold (ratio)); higher = stronger signal-on switching upon ATP binding; sequences stand for … in TCGTCGGCAGCGTCAGATGTGTATAAGAGACAGTTTTTTTTTTTTTTTTTTTTTTTTT…TC
# Settings: aptamer strand: ATP DNA aptamer (quencher-CACCTGGGGGAGTATTGCGGAGGAAGG + anchor), 100 nM annealed; ATP concentration: 500 uM; one replicate
# How it was run: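 Per cluster, summed Cy3 intensity from the target cycles was divided by that from the buffer cycles to give the fluorescence ratio, then averaged per switch-domain sequence. Clusters outside 100-1000 RFU were excluded. The Cy3-labelled switching-strand clusters, on a modified Illumina MiSeq flow-cell, were annealed to 100 nM quencher-labelled ATP aptamer and imaged in selection buffer, then after 15 min with 500 uM ATP at 22 °C, for five cycles with NaOH stripping and re-annealing between them.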
# 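Also: ATP exposure 15 min at 22 °C before imaging.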
row,Sequence,switch fluorescence ratio
1,TAGTAATAGG,1.06
2,CGTTTAATTT,0.986
3,GGAAGTGATT,1.14
4,ACTCTACGAG,1.06
5,GGAGCAGGGT,1.1
6,AGATCTGAG,0.971
7,TCACAGTGCA,1.02
8,AATACCCTCT,1.09
9,TGGTCGTCTA,0.966
10,CCGTGAATTG,1.16
11,ACTGGGTCGC,0.967
12,TAGTTCAAAA,1.02
13,TTTGTTCCAC,1.04
14,GGACCAGAAT,0.991
15,ATTATATACT,1.03
16,CTGGTAATG,1.01
17,TGAGAGACAC,1.04
18,CACTACTTCA,1.1
19,CCAGGCACTT,1
20,GAACGTGTGA,0.999
21,CCCCTTGACG,0.993
22,CAAATGAGAG,1.03
23,ATTATTCTTG,0.978
24,GATATAATAC,1.54
25,AAATACTACA,1.08
26,CCAGATTATC,1.02

row,Sequence,switch fluorescence ratio
1,AAATTCGCCT,1.09
2,GGGGCCCGA,0.986
3,CCACTCAAGT,1.01
4,CAGGACTGG,0.959
5,CTAAGGTCGT,1.02
6,GCACCGCTTT,1.08
7,GCGCAACGTA,0.992
8,AGCGTACGCA,1.02
9,ACTAATCGAT,1.01
10,AATCGAGAAG,0.98
11,AAGCTGGGGC,1.01
12,CGGGTTATGA,1.01
13,TAGCGCGGTT,0.991
14,AGGGAATCAA,0.989
15,CTTCGGGAG,1.07
16,CTGGGAAAGA,0.985
17,TGCGGGATC,1.01
18,CTCCAACTAT,1.26
19,ACCCTCTTGG,1.83
20,TTGGCAAGGC,1.33
21,GAATGGTCGG,1
22,CAGGGCGATT,1.01
23,TAATATTTCT,0.985
24,AGAGATCTAC,1.02
25,CCTTATTCGA,1.01
26,TTCAAACAGT,1.02

row,Sequence,switch fluorescence ratio
1,CATGGATCAG,1
2,CGAGCGTTGG,0.997
3,TGGCCCTGCC,0.984
4,AAACGTTGAG,1.04
5,GCGATAAGCA,1.08
6,TCTGTAGGAA,1.11
7,CGAGTGAGTA,1.05
8,ACCTATCACC,1.12
9,CATGGGTCGG,0.961
10,TCAGGTTGCC,1.04
11,ATACAATCGC,1.03
12,GGTACTCAGC,1.08
13,GCTGTGATGG,1.02
14,ATGAATCTAT,0.952
15,TGAAGACGAT,1.06
16,AGTGGGTTCG,1.01
17,GACTCAGCAG,1.38
18,TTCTTAGTTA,0.984
19,ATACTAGGGA,0.998
20,GGGATGCACA,0.989
21,TGGTTCTTGT,0.938
22,TTTTTTCTAG,1.03
23,CCGATCTGGG,1.03
24,TATTGATCGC,0.968
25,TCATCTCAAT,1.24
26,GATGTATGCA,0.98

row,Sequence,switch fluorescence ratio
1,GGGTTTCTTG,0.993
2,TCGCAACTGA,1.7
3,TTAATACCCA,2.36
4,AAAAAATTAC,1.03
5,ACCAATGCAG,0.994
6,GGCCGGTCCC,1.05
7,TTTTTGG,0.977
8,TCCGAAATG,1.02
9,ACCCAAGTGG,1.02
10,GGTTATGCTC,1.04
11,TCTCCCGGGG,1.26
12,TTAGAATAAC,2.57
13,CTACAGCTAA,1.48
14,CGCCTCGTTC,0.995
15,AAAAAATACC,1.04
16,GAGGACGTTC,0.942
17,AGGGTCTACA,1.01
18,GGCCGTCTGA,0.965
19,GTTTTTTCAC,1.02
20,TCTTGTTTCC,1.1
21,GTTATGATCC,0.973
22,CCGACGATGT,5.24
23,TTCTTAATTG,0.985
24,TTATTTTAT,0.979
25,CGACTCCGTT,1.71
26,GAACGCGCAG,1.02

row,Sequence,switch fluorescence ratio
1,ACGGCGACTA,1.13
2,GTGCGGATTA,0.972
3,ACATACAGCG,1.25
4,TTTAGCGAGA,0.988
5,TGTCTACGCA,1.7
6,CTGTTGTCC,0.981
7,AGGATTGAT,0.977
8,CATACCTGGT,1.02
9,CAATACCTGT,1.02
10,ATATCTGATT,1.02
11,AGAACGTGAC,1.34
12,GCTGCGTTTG,1.01
13,TGGCTACGC,1
14,TCGTAATGTT,1.05
15,CTTTGAGAGT,0.978
16,ATTTGTCAGC,1.02
17,TTTCGTTCCA,1.02
18,AGATTTTGGG,1.02
19,GCGGCCTGT,1
20,ACTGGGCAGC,1.08
21,GGGTCTGAAG,0.953
22,CGGATCTCGA,1
23,AAGCGGGAAT,0.982
24,GCTCCTGGGT,1.02
25,TGCCTAATAG,1.04
26,TGGCCTAGCT,1

row,Sequence,switch fluorescence ratio
1,ATCTGAAGGG,0.958
2,CTTTATGTGG,0.979
3,ACATTTAACG,1.04
4,AACTTTGTTC,1.03
5,AACCTGGCGC,1.29
6,GGTACCGATA,1.01
7,GGCTTAAGT,0.989
8,GGGTTCGGTA,1.01
9,TGCTATAATT,0.942
10,GGGTCAATT,0.983
11,CTGCCAGCCG,1.06
12,GTGGGATGAA,0.93
13,CGTCAGCAGG,1.46
14,GAGAAAAGAG,1.02
15,TCCCCACTTC,1.06
16,GACTAGAGCC,1.08
17,TTCTAGGACC,1.03
18,CGTCGCTTCT,1.04
19,ATATAAGTAA,0.998
20,AAGCCGGTA,1.03
21,ATCAGTGATA,1.08
22,CGCGAGGGCG,0.973
23,GGTATCATCT,0.952
24,ATCACACTCG,1.02
25,GTTAATGACC,1.02
26,TCCATAGATC,0.989

row,Sequence,switch fluorescence ratio
1,GATGCAGTT,1.04
2,TTACAATCTT,1.02
3,GAGCCGCCGG,0.978
4,GATTCCTTCT,1.07
5,ACTTAACGGT,1.34
6,GGAGAAAACA,1.03
7,TCGCCGTTTG,1.03
8,GAAGTGCCTT,0.997
9,CTTGGCTGAC,1.41
10,GGTTTCTTAT,1.04
11,GCTGCATATG,1.04
12,GATTGTAGGG,0.998
13,TACAAAGTGG,1.02
14,AGGTATCGA,1.05
15,CCTATTCGTA,0.986
16,TCTTGGCCGG,1.01
17,ATAGTCATGG,0.982
18,GGATGACCGT,0.978
19,ATGAGTCTCA,0.998
20,TGAATTCAGA,0.974
21,TCAGGAGAC,1.1
22,TGTTGTTAAG,0.988
23,ACACCACTAA,1.24
24,ACGTTGCGGG,0.995
25,TTATCCATCA,1.03
26,AAATACTCGC,1.81

row,Sequence,switch fluorescence ratio
1,CTAACAGTGC,1.1
2,ACATATGCAA,1.16
3,TGGTATGGAC,1.02
4,GTAGAAC,0.98
5,AACGTTATTG,1.04
6,AGAAAGTTAT,0.984
7,TGCTCACA,1.02
8,TGAGGGTGAT,0.936
9,TTCTCCTGCA,2.83
10,GCCAGTTAAG,0.98
11,ACGCACACCG,1.57
12,TTAGCAACTT,1.35
13,AAGATCCGTG,0.949
14,TGTTACTGTG,0.968
15,GTCTTCGGGC,1.02
16,CTACCATATG,1.03
17,GGATTGTGTC,1.05
18,ATACGCACCG,1.02
19,GTCGCTGAGA,1
